Data reported in patent publication US20240190968A1 (HEFEI TG IMMUNOPHARMA, published 2024).

Molecular target: T1, B7H6 protein overexpressed in HL60 cells (human, UniProt Q68D85 25-454)
T1 construct: Full-length entry expressed from a lentiviral vector; also called HL60-B7H6
T1 sequence: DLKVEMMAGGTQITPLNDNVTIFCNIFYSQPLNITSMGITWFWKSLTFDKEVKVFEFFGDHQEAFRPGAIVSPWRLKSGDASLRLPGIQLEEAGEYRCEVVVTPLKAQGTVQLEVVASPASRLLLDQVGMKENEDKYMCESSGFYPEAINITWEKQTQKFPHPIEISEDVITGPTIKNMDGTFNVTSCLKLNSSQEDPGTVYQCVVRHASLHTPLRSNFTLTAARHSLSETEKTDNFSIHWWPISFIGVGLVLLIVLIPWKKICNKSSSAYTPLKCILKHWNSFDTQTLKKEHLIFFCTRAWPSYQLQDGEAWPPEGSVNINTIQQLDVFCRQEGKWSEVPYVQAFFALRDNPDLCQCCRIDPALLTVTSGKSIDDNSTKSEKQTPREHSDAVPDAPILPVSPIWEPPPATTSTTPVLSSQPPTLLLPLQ
Test: flow cytometry, NKp30-Fc at 4 ug/tube on HL60-B7H6 cells, then murine 12F5 or control IgG added, 647-labeled mouse anti-human secondary antibody
Procedure: The B7H6 antibody can promote the signaling pathway of B7H6 and its receptor NKp30 by binding to the extracellular domain of B7H6. The flow cytometry assay was used to detect the enhancement of B7H6 antibody binding to the receptor NKp30.
HL60-B7H6 cells (same as above) were diluted with PBS to 2× 10⁶/ml, added to a 1.5 mL EP tube in a volume of 100 μL/tube, 10 μL/tube of mouse serum was added thereto, and was blocked at 4° C. for 30 min. NKp30 extracellular region Fc fusion protein (NKp30-Fc, SEQ ID NO. 25, expressed in this laboratory) was added at 4 μg/tube and incubated for 30 min at 4° C. B7H6 antibody was added and incubated at 4° C. for 30 min. The EP tube was added with 1 mL of PBS and centrifuged at 3500 rpm at 4° C. for 5 min. The supernatant was discarded and the precipitate was washed once more with PBS. After centrifugation, the supernatant was discarded. The cells were resuspended with 100 μl/tube of PBS, 1 μL/tube of 647-labeled mouse anti-human antibody secondary antibody (Biolegend) was added thereto, and incubated at 4° C., under the condition of avoiding light, for 30 min. The cell-containing precipitate was washed twice with PBS and the supernatant was discarded after centrifugation. The cells were resuspended with 200 μL/tube of PBS and detected by flow cytometry. […]

B1: recombinant NKp30 extracellular region Fc fusion protein (Fc fusion)
chain: WVSQPPEIRTLEGSSAFLPCSFNASQGRLAIGSVTWFRDEVVPGKEVRNGTPEFRGRLAPLASSRFLHDHQAELHIRDVRGHDASIYVCRVEVLGLGVGTGNGTRLVVEKEHPQLGENLYFQSL[sequence of human IgG1 Fc not given]
notes: also called NKp30-Fc
B1: binds.
